We go through 33 molecules from the supplement of paper PMC6609913.

In this assay the test system is V-C8 (BRCA2-deficient hamster cells). As to the kind of experiment: normalised cell viability (fraction of plate median); higher = more viable cells (less toxic). As to conditions: 5 µM. In outline: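 In two screens, library drugs at 5 μM were given for 3 days (screen 1) or 6 days (screen 2) to hamster V-C8 cells without BRCA2 and V-C8 cells with BRCA2 restored, seeded 24 h earlier in 96-well plates. A resazurin assay gave the cell viability readout, expressed as modified robust per cent of sample against the plate median, with triplicate wells averaged.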

Structures can show the parent of a compound that is named as a salt. ± gives the standard deviation of the averaged measurements. Whole data set: some 1,300 compounds, median “normalised cell viability” near 1, cut for the lowest 2% near 0.14. The list shows a part of the results.

As for `Nc1ccc(S(=O)(=O)NC(=O)c2ccccc2)cc1` [Sulfabenzamide], the normalised cell viability is 0.92 ± 0.013 (treatment time: 3 days) and 0.97 ± 0.063 (treatment time: 6 days).

For the molecule `C=C(CC)C(=O)c1ccc(OCC(=O)O)c(Cl)c1Cl` [Ethacrynic acid], the normalised cell viability is, setting by setting: (treatment time: 3 days) 1.08 ± 0.038; (treatment time: 6 days) 1.01 ± 0.048.

Turning to `C1N2CN3CN1CN(C2)C3` [Methenamine], the normalised cell viability amounted to 1.01 ± 0.064 (treatment time: 3 days) and 1.03 ± 0.082 (treatment time: 6 days).

In turn, `O=C1NCCN1c1ncc([N+](=O)[O-])s1` [Niridazole] gave a normalised cell viability (treatment time: 3 days) of 1.06 ± 0.041 and a normalised cell viability (treatment time: 6 days) of 1.12 ± 0.02.

For the molecule `CCCCCN(C)CCC(O)(P(=O)(O)O)P(=O)(O)O` [Ibandronate sodium], the normalised cell viability runs as follows: (treatment time: 3 days) 0.681 ± 0.085; (treatment time: 6 days) 0.174 ± 0.029.

Take `C[C@@H](O)[C@H]1C(=O)N2C(C(=O)O)=C(SCCNC=N)C[C@H]12` [Imipenem]: the normalised cell viability was 1.12 ± 0.098 (treatment time: 3 days) and 1.05 ± 0.027 (treatment time: 6 days).

`c1ccc2c(c1)CCCC2C1=NCCN1` (stereo unspecified) [Tetrahydrozoline hydrochloride]: the normalised cell viability reads like this: (treatment time: 3 days) 1.02 ± 0.059; (treatment time: 6 days) 1.02 ± 0.051.

With `CC(C)(C)C(=O)OCOC(=O)[C@@H]1N2C(=O)[C@@H](/N=C/N3CCCCCC3)[C@H]2SC1(C)C` [Pivmecillinam hydrochloride], the normalised cell viability (treatment time: 3 days) was found to be 0.959 ± 0.056 and the normalised cell viability (treatment time: 6 days) was determined as 1.01 ± 0.039.

Take `CNc1ncnc2c1ncn2[C@@H]1O[C@H](CO)[C@@H](O)[C@H]1O` [N6-methyladenosine]: the normalised cell viability is 1.12 ± 0.018 (treatment time: 3 days) and 0.996 ± 0.024 (treatment time: 6 days).

For `OCC(O)CN1CCN(c2ccccc2)CC1` (racemic) [Dropropizine (R,S)], the normalised cell viability (treatment time: 3 days) worked out at 0.964 ± 0.051 and the normalised cell viability (treatment time: 6 days) was determined as 1.01 ± 0.057.

Consider `CCOC(=O)Nc1ccc2c(c1)N(C(=O)CCN1CCOCC1)c1ccccc1S2` [Moricizine hydrochloride], for which the normalised cell viability was found to be 1.1 ± 0.13 (treatment time: 3 days) and 1.13 ± 0.083 (treatment time: 6 days).

`COC(=O)[C@H]1[C@H]2C[C@@H]3c4[nH]c5cc(OC)ccc5c4CCN3C[C@H]2C[C@@H](OC(=O)c2cc(OC)c(OC)c(OC)c2)[C@@H]1OC` [Reserpine]: the normalised cell viability runs as follows: (treatment time: 3 days) 0.861 ± 0.027; (treatment time: 6 days) 0.919 ± 0.026.

With `CNC(=C[N+](=O)[O-])NCCSCc1ccc(CN(C)C)o1` [Ranitidine hydrochloride], the normalised cell viability is, setting by setting: (treatment time: 3 days) 1.02 ± 0.13; (treatment time: 6 days) 1.08 ± 0.045.

On to `CC(C)C[C@H](NC(=O)[C@@H](O)[C@H](N)Cc1ccccc1)C(=O)O` [Ubenimex], for which the normalised cell viability (treatment time: 3 days) was 0.991 ± 0.032 and the normalised cell viability (treatment time: 6 days) amounted to 0.999 ± 0.063.

As to `CCCCCCCCCCCCCCCC[N+](C)(C)CCN(Cc1ccc(OC)cc1)c1ncccn1` [Thonzonium bromide], the normalised cell viability was determined as 0.744 ± 0.044 (treatment time: 3 days) and 0.631 ± 0.028 (treatment time: 6 days).

As to `CCN(CC)CCCC(C)Nc1c2ccc(Cl)cc2nc2ccc(OC)cc12` (stereo unspecified) [Quinacrine dihydrochloride dihydrate], the normalised cell viability by setting is: (treatment time: 3 days) 0.123 ± 0.011; (treatment time: 6 days) 0.108 ± 0.009.

`CC(=O)N1CCN(c2ccc(OCC3COC(Cn4ccnc4)(c4ccc(Cl)cc4Cl)O3)cc2)CC1` (stereo unspecified) [Ketoconazole] returned a normalised cell viability (treatment time: 3 days) of 0.8 ± 0.022 and a normalised cell viability (treatment time: 6 days) of 0.898 ± 0.028.

In the case of `CN(CCOc1ccc(NS(C)(=O)=O)cc1)CCc1ccc(NS(C)(=O)=O)cc1` [Dofetilide], the normalised cell viability by setting is: (treatment time: 3 days) 1.08 ± 0.059; (treatment time: 6 days) 1.1 ± 0.028.

For the molecule `C#C[C@]1(O)CC[C@H]2[C@@H]3CCc4cc(OC)ccc4[C@H]3CC[C@@]21C` [Ethynylestradiol 3-methyl ether], the normalised cell viability by setting is: (treatment time: 3 days) 0.844 ± 0.02; (treatment time: 6 days) 0.886 ± 0.17.

Consider `CC(C)NCC(O)c1ccc(NS(C)(=O)=O)cc1` (stereo unspecified) [Sotalol hydrochloride], for which the normalised cell viability runs as follows: (treatment time: 3 days) 0.982 ± 0.045; (treatment time: 6 days) 1.05 ± 0.062.

In the case of `COC(=O)C1=C(C)NC(C)=C(C(=O)OC)C1c1ccccc1[N+](=O)[O-]` [Nifedipine], the normalised cell viability by setting is: (treatment time: 3 days) 0.934 ± 0.074; (treatment time: 6 days) 0.96 ± 0.068.

Turning to `Cc1cc(NC(=O)C2=C(O)c3ccccc3S(=O)(=O)N2C)no1` [Isoxicam], the normalised cell viability (treatment time: 3 days) came out at 1.04 ± 0.06 and the normalised cell viability (treatment time: 6 days) came to 1.06 ± 0.042.

Turning to `Cc1cc(C(C)(C)CC(C)(C)C)ccc1OCCOCC[N+](C)(C)Cc1ccccc1` [Methyl benzethonium chloride], the normalised cell viability reads like this: (treatment time: 3 days) 0.853 ± 0.09; (treatment time: 6 days) 0.859 ± 0.023.

As for `CO[C@@]1(NC(=O)C2SC(=C(C(N)=O)C(=O)O)S2)C(=O)N2C(C(=O)O)=C(CSc3nnnn3C)CS[C@@H]21` (stereo partly specified) [Cefotetan], the normalised cell viability reads like this: (treatment time: 3 days) 0.924 ± 0.016; (treatment time: 6 days) 0.971 ± 0.061.

For `CN(C)CCCN1c2ccccc2CCc2ccc(Cl)cc21` [Clomipramine hydrochloride], the normalised cell viability by setting is: (treatment time: 3 days) 0.94 ± 0.075; (treatment time: 6 days) 0.993 ± 0.011.

As to `CCN(CC)CCOC(=O)C1(c2ccc([N+](=O)[O-])cc2)CCCC1` [Nitrocaramiphen hydrochloride], the normalised cell viability was determined as 1.06 ± 0.071 (treatment time: 3 days) and 1.1 ± 0.11 (treatment time: 6 days).

Regarding `Clc1ccccc1CN1CCc2sccc2C1` [Ticlopidine hydrochloride], the normalised cell viability (treatment time: 3 days) is 1.1 ± 0.032 and the normalised cell viability (treatment time: 6 days) was found to be 1.08 ± 0.064.

For the molecule `Nc1ccc(O)c(C(=O)O)c1` [Mesalamine], the normalised cell viability is, setting by setting: (treatment time: 3 days) 1.09 ± 0.028; (treatment time: 6 days) 1.14 ± 0.27.

For the molecule `Nc1ccc(S(=O)(=O)Nc2ncccn2)cc1` [Sulfadiazine], the normalised cell viability reads like this: (treatment time: 3 days) 0.993 ± 0.022; (treatment time: 6 days) 1.05 ± 0.035.

`C#C[C@]1(OC(C)=O)CC[C@H]2[C@@H]3CCC4=C[C@@H](OC(C)=O)CC[C@@H]4[C@H]3CC[C@@]21C` [Ethynodiol diacetate]: the normalised cell viability was determined as 1.04 ± 0.05 (treatment time: 3 days) and 0.696 ± 0.23 (treatment time: 6 days).

`C#C[C@]1(O)CC[C@H]2[C@@H]3CCC4=CC(=O)CC[C@@H]4[C@H]3CC[C@@]21C` [Norethindrone]: the normalised cell viability turned out to be 1 ± 0.076 (treatment time: 3 days) and 1.03 ± 0.04 (treatment time: 6 days).

Turning to `CO[C@@]1(NC(=O)C(C(=O)O)c2ccc(O)cc2)C(=O)N2C(C(=O)O)=C(CSc3nnnn3C)CO[C@@H]21` (stereo partly specified) [Moxalactam disodium salt], the normalised cell viability runs as follows: (treatment time: 3 days) 1.08 ± 0.014; (treatment time: 6 days) 1.05 ± 0.046.

With `CC(=O)O[C@]1(C(C)=O)CC[C@H]2[C@@H]3C=C(C)C4=CC(=O)CC[C@@H]4[C@H]3CC[C@@]21C` [Nomegestrol acetate], the normalised cell viability amounted to 0.975 ± 0.062 (treatment time: 3 days) and 1.01 ± 0.11 (treatment time: 6 days).
